Results on 24 compounds are retold here after PMC4336329 (PLoS ONE, 2015).

Each structure is given as a SMILES string. Hit rate of the full screen: of about 310,000 compounds, about 14,000 (4.5%) showed an effect of 50% or more. The effect is printed as a negative number. The list shows a part of the results.
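Note: peak tail current of the secondary pulse compared with the same well before compound.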

This assay deals with human ether-à-go-go-related gene (hERG) potassium channel (human, UniProt Q12809). In words: primary screen, population patch clamp on CHO cells stably expressing hERG.
Sequence of human ether-à-go-go-related gene (hERG) potassium channel (Q12809 whole entry, looked up): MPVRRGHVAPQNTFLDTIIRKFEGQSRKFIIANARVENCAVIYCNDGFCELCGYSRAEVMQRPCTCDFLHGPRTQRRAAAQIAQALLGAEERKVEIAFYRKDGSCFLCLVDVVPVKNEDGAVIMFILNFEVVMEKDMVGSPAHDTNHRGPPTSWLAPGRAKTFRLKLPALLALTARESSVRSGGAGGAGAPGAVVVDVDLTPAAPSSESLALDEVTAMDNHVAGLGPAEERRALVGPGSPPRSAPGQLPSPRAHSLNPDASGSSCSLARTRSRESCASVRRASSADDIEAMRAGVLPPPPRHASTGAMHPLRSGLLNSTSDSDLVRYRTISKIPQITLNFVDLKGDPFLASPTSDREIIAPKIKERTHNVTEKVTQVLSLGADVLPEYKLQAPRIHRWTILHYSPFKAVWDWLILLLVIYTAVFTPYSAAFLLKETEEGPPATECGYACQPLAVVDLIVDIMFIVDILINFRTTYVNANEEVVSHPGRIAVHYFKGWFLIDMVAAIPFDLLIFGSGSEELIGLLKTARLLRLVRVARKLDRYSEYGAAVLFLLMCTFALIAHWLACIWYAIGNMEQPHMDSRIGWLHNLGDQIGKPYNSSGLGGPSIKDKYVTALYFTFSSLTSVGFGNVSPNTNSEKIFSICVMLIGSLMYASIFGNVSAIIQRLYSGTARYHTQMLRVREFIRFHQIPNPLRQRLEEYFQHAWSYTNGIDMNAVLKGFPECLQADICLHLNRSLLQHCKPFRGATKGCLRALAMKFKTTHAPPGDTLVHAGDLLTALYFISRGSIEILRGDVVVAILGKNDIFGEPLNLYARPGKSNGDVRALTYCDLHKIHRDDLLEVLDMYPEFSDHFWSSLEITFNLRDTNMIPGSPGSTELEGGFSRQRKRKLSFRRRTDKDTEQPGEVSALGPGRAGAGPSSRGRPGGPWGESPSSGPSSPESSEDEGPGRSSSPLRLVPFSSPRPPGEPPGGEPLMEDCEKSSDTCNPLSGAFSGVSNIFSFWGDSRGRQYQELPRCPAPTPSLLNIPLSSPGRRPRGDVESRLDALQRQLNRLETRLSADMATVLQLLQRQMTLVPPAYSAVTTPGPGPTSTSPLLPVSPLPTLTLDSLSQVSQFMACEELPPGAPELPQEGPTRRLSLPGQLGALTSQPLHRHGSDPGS
For `CSCCC(NC(=O)c1ccccc1Cl)C(=O)N1CCC1` (stereo not drawn), the “hERG current change (%, negative = inhibition) at 10uM” value was -1.99%.

In the case of `O=C(COC(=O)c1sc2cc(Cl)ccc2c1Cl)Nc1ncc(Cl)cc1Cl`, the “hERG current change (%, negative = inhibition) at 10uM” value was found to be 15.9%.

On to `COc1ccc(Br)cc1S(=O)(=O)Nc1ccc(Cl)cn1`, for which the “hERG current change (%, negative = inhibition) at 10uM” value is given as -0.173%.

For the compound `COc1ccc(CCNC(=O)C2CCN(S(=O)(=O)c3ccc(OC)cc3)CC2)cc1`, the “hERG current change (%, negative = inhibition) at 10uM” value is reported as -16.9%.

As for `C=CCNC(=S)N1CCN(Cc2ccc3c(c2)OCO3)CC1.O=C(O)C(=O)O`, the “hERG current change (%, negative = inhibition) at 10uM” value is on record as 3.16%.

Take `COc1ccc(N2CCN(C(=O)COC(=O)CCc3ccccc3OC)CC2)cc1`: the “hERG current change (%, negative = inhibition) at 10uM” value was -6.98%.

Turning to `O=C(Nc1ccc2nc(-c3cccnc3)[nH]c2c1)C12CC3CC(CC(C3)C1)C2`, the “hERG current change (%, negative = inhibition) at 10uM” value is reported as -2.62%.

With `Cc1ccc(Nc2cc(C)nc3c(C)ccc([N+](=O)[O-])c23)cc1`, the “hERG current change (%, negative = inhibition) at 10uM” value came to 8.96%.

As for `CCOc1ccc(NC(=O)C2CC(=O)N=C(N)S2)cc1` (stereo not drawn), the “hERG current change (%, negative = inhibition) at 10uM” value is reported as 16.1%.

For `CC(=O)c1c(C)oc2ccc(N(C(C)=O)S(=O)(=O)c3ccc(F)cc3C)cc12`, the “hERG current change (%, negative = inhibition) at 10uM” value was 4.72%.

Take `COc1ccc(C(=O)NCCS(=O)(=O)NC(C)c2ccccc2)cc1` (stereo not drawn): the “hERG current change (%, negative = inhibition) at 10uM” value is -13.4%.

For `CSc1ncccc1C(=O)OCC(=O)N1CCOCC1`, the “hERG current change (%, negative = inhibition) at 10uM” value was determined as 8.99%.

`NC(=O)COC(=O)CNC(=O)c1cc(Cl)cc([N+](=O)[O-])c1`: the “hERG current change (%, negative = inhibition) at 10uM” value was 12.4%.

In the case of `NC(=S)Nn1c(CCC(=O)O)ccc1-c1ccccc1`, the “hERG current change (%, negative = inhibition) at 10uM” value was 2.83%.

In the case of `COc1ccccc1C(=O)N/N=C(\C)CC(=O)Nc1ccccc1NC(C)=O`, the “hERG current change (%, negative = inhibition) at 10uM” value worked out at 19.6%.

On to `CSC(=NC#N)N1CCN(C(c2ccccc2)c2ccccc2)CC1`, for which the “hERG current change (%, negative = inhibition) at 10uM” value is listed as -23.5%.

With `C=CCN(CC=C)C(=O)C[n+]1ccc(C(N)=O)cc1.[Cl-]`, the “hERG current change (%, negative = inhibition) at 10uM” value is given as -0.0573%.

As to `CCNCCC(=O)N1c2ccccc2Sc2ccc(C(F)(F)F)cc21.Cl`, the “hERG current change (%, negative = inhibition) at 10uM” value came to 0.883%.

As to `C=CCn1c(O)c(C=NC2CCN(Cc3ccccc3)CC2)c(=O)[nH]c1=O`, the “hERG current change (%, negative = inhibition) at 10uM” value is recorded as -33.5%.

Regarding `Cc1ccc(NC(=O)c2ccc(Cl)c(S(=O)(=O)N3CCCCC3)c2)nc1`, the “hERG current change (%, negative = inhibition) at 10uM” value is listed as -23.4%.

In the case of `S=C(NCc1cccs1)Nc1cccc(Cl)c1`, the “hERG current change (%, negative = inhibition) at 10uM” value is reported as -6.52%.

On to `O=C(N/N=C\c1c(O)ccc2ccccc12)c1ccc(S(=O)(=O)N2CCCCC2)cc1`, for which the “hERG current change (%, negative = inhibition) at 10uM” value is on record as -3.55%.

As for `COc1ccc(N2CCN(Cc3cc4c(cc3Br)OCCO4)CC2)cc1`, the “hERG current change (%, negative = inhibition) at 10uM” value amounted to 6.7%.

As for `CCCc1cc(=O)oc2c3c(c4c(c12)OC(C)(C)C=C4)OC(C)C(C)C3O` (stereo not drawn), the “hERG current change (%, negative = inhibition) at 10uM” value turned out to be 9.1%.
